These results are taken from publication PMC5540273 (PLoS ONE, 2017).

Common to all, as to conditions: concentration: 1 μM,replicates: in singlicate; n = 1
Assay [1] deals with ITK.
Assay [2] has as its system JAK1(JH1domain-catalytic).
For assay [3], the system named is JAK1(JH2domain-pseudokinase).
In assay [4] the test system is JAK2(JH1domain-catalytic).
Assay [5] deals with JAK3(JH1domain-catalytic).
Assay [6] deals with T1, JNK1.
T1 construct: gene MAPK8

Assay [7] concerns T2, JNK2.
T2 construct: gene MAPK9

For assay [8], the system named is T3, JNK3.
T3 construct: gene MAPK10

The test system of assay [9] is KIT-autoinhibited.
Assay [10] has as its system KIT.
Assay [11] has as its system LATS1.
For assay [12], the system named is LATS2.
Assay [13] relates to LCK.
The test system of assay [14] is LIMK1.
In assay [15] the test system is LIMK2.
Assay [16] relates to T4, LKB1.
T4 construct: gene STK11

Assay [17] concerns T5, LOK.
T5 construct: gene STK10

Assay [18] relates to LRRK2.
Assay [19] concerns LTK.
The test system of assay [20] is LYN.

The structures appear in SMILES notation. For some of these results: Shown are results outside the selection of strong results, which stands elsewhere. Only a part is listed here, and it is no random draw.
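Also: KINOMEscan kinase panel screen.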

Regarding `O=C1NC(=O)C(c2ccccc2Cl)=C1Nc1ccccc1` [SB-376715], the “%Inh” value in assay [1] is given as 0%; in [2] it was 0%; in assay [3] it was 0%; in [4], 0%; in assay [5], 69%; in [6], 7%. Also, the “%Inh” value in assay [7] was found to be 30%; in assay [8] it was 37%; in assay [9], 0%; in [10], 0%; in assay [11] it was 20%; in assay [12] it was 3%. The “%Inh” value turned out to be 9% in assay [13]; 15% in assay [14]; 0% in assay [15]; 98% in [16]; 0% in assay [17]; 0% in [18]. In addition, the “%Inh” value in [19] was found to be 3%; in [20], 0%.
Turning to `COc1ccc(C2=C(Nc3cccc(Cl)c3)C(=O)NC2=O)cc1` [SB-326892], the “%Inh” value in assay [1] is reported as 0%; in [2], 100%; in [3] it was 8%; in assay [4], 0%; in assay [5], 20%; in assay [6] it was 0%. Also, the “%Inh” value in assay [7] was 2%; in assay [8] it was 0%; in [9] it was 6%; in assay [10], 10%; in [11], 20%; in assay [12], 22%. The “%Inh” value is 0% in [13]; 3% in [14]; 7% in assay [15]; 0% in [16]; 27% in assay [17]; 0% in assay [18]. Also, the “%Inh” value in assay [19] is reported as 40%; in assay [20], 0%.
For the compound `Cc1cc(C)cc(Oc2nccc(-c3c(-c4ccc(F)cc4)ncn3C3CCNCC3)n2)c1.O=C(O)C(F)(F)F.O=C(O)C(F)(F)F.O=C(O)C(F)(F)F` [SB-284851], the “%Inh” value in [1] is recorded as 4%; in [2], 86%; in assay [3], 0%; in [4] it was 0%; in assay [5], 29%; in [6], 20%. For the same compound, the “%Inh” value in assay [7], in [8], in [9], in [10], in assay [11] and in assay [12] was 0% throughout. The “%Inh” value in assay [13] came to 20%; in assay [14] it was 5%; in assay [15], 0%; in assay [16], 0%; in [17], 0%; in [18], 0%. The “%Inh” value came out at 15% in assay [19] and 0% in assay [20].
For `O=C1NC(=O)C(c2ccc(Cl)cc2)=C1Nc1cccc(O)c1` [SB-333613], the “%Inh” value worked out at 0% in assay [1]; 0% in assay [2]; 0% in assay [3]; 54% in assay [4]; 58% in [5]; 24% in [6]. The “%Inh” value in [7] is 24%; in [8], 2%; in assay [9] it was 16%; in assay [10], 0%; in assay [11] it was 0%; in [12], 34%. In addition, the “%Inh” value in assay [13] was found to be 0%; in assay [14], 0%; in [15], 0%; in [16], 61%; in assay [17] it was 6%; in [18], 4%. Besides, the “%Inh” value was 12% in [19] and 3% in assay [20].
For the compound `COc1cccc(C2=C(Nc3ccc(SC)cc3)C(=O)NC2=O)c1` [SB-331032], the “%Inh” value in assay [1] amounted to 4%; in assay [2], 0%; in assay [3] it was 0%; in assay [4], 47%; in assay [5] it was 66%; in assay [6], 25%. Moreover, the “%Inh” value in assay [7] is recorded as 32%; in assay [8] it was 10%; in assay [9], 13%; in assay [10] it was 0%; in assay [11], 2%; in assay [12], 0%. Further, the “%Inh” value is 20% in [13]; 6% in assay [14]; 10% in assay [15]; 22% in assay [16]; 31% in [17]; 0% in [18]. Moreover, the “%Inh” value in [19] came to 0%; in assay [20], 15%.
In the case of `O=C1NC(=O)C(c2ccccc2)=C1Nc1ccc(Cl)c(C(=O)O)c1` [SB-390532], the “%Inh” value in assay [1] was found to be 3%; in assay [2] it was 6%; in assay [3], 0%; in assay [4], 7%; in assay [5], 29%; in [6] it was 21%. Moreover, the “%Inh” value was 19% in [7]; 4% in assay [8]; 0% in assay [9]; 0% in assay [10]; 0% in [11]; 2% in assay [12]. The “%Inh” value in assay [13] is recorded as 0%; in assay [14], 8%; in [15], 0%; in assay [16], 11%; in assay [17], 2%; in [18], 8%. Further, the entries for the “%Inh” value in [19] and in [20] were 6% and 3%, respectively.
Turning to `CSc1ccc(NC2=C(c3cccc(Cl)c3)C(=O)NC2=O)cc1` [SB-341528], the “%Inh” value in assay [1] worked out at 0%; in [2], 0%; in [3], 48%; in assay [4], 0%; in assay [5], 52%; in assay [6], 25%. In addition, the “%Inh” value in assay [7] stood at 10%; in assay [8], 6%; in [9], 17%; in assay [10] it was 0%; in assay [11], 0%; in assay [12], 11%. In addition, the “%Inh” value in assay [13], in assay [14], in assay [15], in assay [16], in assay [17] and in assay [18] was 0% in each case. The “%Inh” value in assay [19] and in assay [20] was 0% in each case.
As to `O=C1NC(=O)C(c2ccc(Cl)cc2)=C1Nc1ccc(O)c(Cl)c1` [SB-405367], the “%Inh” value was 4% in [1]; 0% in assay [2]; 63% in assay [3]; 25% in [4]; 5% in [5]; 37% in assay [6]. Moreover, the “%Inh” value in assay [7] was 4%; in [8], 16%; in [9], 12%; in assay [10], 3%; in assay [11], 0%; in assay [12], 18%. Moreover, the “%Inh” value in assay [13] amounted to 3%; in assay [14] it was 0%; in [15], 0%; in [16] it was 40%; in [17] it was 4%; in assay [18] it was 0%. Also, the “%Inh” value in assay [19] and in assay [20] was 0% each time.
